Data reported in the BET-seq Pho4 binding data (Le et al. 2018).
This is one part of the list. Values were computed here from the reads of four pooled replicates and scatter widely.

Biological target: T1, Pho4 (S. cerevisiae) (UniProt P07270)
T1 sequence: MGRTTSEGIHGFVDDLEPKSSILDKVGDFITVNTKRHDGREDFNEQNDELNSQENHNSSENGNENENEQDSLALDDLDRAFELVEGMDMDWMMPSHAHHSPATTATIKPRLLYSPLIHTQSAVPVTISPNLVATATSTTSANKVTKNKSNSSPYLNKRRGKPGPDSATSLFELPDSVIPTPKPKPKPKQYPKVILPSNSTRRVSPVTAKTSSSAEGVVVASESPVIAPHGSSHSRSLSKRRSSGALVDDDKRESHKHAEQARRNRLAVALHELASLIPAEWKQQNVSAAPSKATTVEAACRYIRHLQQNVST
Experiment: relative binding free energy (BET-seq); higher = weaker binding
Settings: reference: library average

Row | Sequence | relative binding free energy [kcal/mol]
1 | GTTTACACGTGATCGG | 0.17
2 | CGTCTCACGTGCGGGT | 0.1
3 | CTGTTCACGTGAGTAG | 0.33
4 | GTCATCACGTGAGTTT | 0.26
5 | GCAAGCACGTGGCTGG | 0
6 | TGTTACACGTGTTCTT | 0.13
7 | ACTGGCACGTGGTTGG | -0.24
8 | TGGGTCACGTGAGCAG | 0.08
9 | GGGTTCACGTGAATTT | 0.57
10 | TAGCTCACGTGTTTAT | 0.23
11 | CTTTTCACGTGTTTGT | 0.13
12 | TATATCACGTGTTGAG | 0.04
13 | TAGCACACGTGGGTAT | -0.02
14 | AAGTGCACGTGAATAG | 0.21
15 | GTTCGCACGTGTGGGT | 0.08
16 | TGAAGCACGTGTAAAT | 0.11
17 | TGGTGCACGTGACGGC | 0.19
18 | TTGAGCACGTGTAGTA | 0.03
19 | AACGGCACGTGGGGAT | -0.06
20 | TGTCACACGTGGGTAA | -0.09
21 | TGGATCACGTGTTTTT | 0.22
22 | TTGAGCACGTGTGTTT | -0.05
23 | TTATTCACGTGGAAGA | 0.24

Row | Sequence | relative binding free energy [kcal/mol]
24 | GCGGTCACGTGATGTT | 0.39
25 | TGGTTCACGTGCGTTT | 0.26
26 | ATGATCACGTGGTTTG | -0.01
27 | TTGATCACGTGTGGCA | 0.06
28 | AGTTTCACGTGTGCTA | 0.22
29 | TAGGACACGTGGTGAA | 0.12
30 | TGTATCACGTGTATGC | 0.09
31 | GATGACACGTGAGGTA | 0.26
32 | TGGTTCACGTGACTGA | 0.33
33 | TGCGGCACGTGGGGAC | -0.2
34 | GGCTGCACGTGATAGG | 0.07
35 | CGGGGCACGTGAAAGC | 0.23
36 | CGATTCACGTGCGTGA | 0.38
37 | CACGGCACGTGTGGTA | 0.01
38 | CTTTTCACGTGGTTGA | 0.19
39 | ATAGACACGTGGTAAG | 0.01
40 | TTTTCCACGTGACGTG | 0.16
41 | GGTAGCACGTGCATGG | -0.01
42 | GCTAGCACGTGTTATT | 0.21
43 | AAGAGCACGTGAGTGT | 0.05
44 | GTACGCACGTGTTAGG | -0.09
45 | TGTCACACGTGTAGTG | 0.09
46 | ATATTCACGTGTTTGT | 0.22

Row | Sequence | relative binding free energy [kcal/mol]
47 | TGGGGCACGTGTCCAG | -0.17
48 | AATGACACGTGGGGGA | -0.14
49 | TCGCTCACGTGAGGGG | 0.25
50 | GTAGTCACGTGAATGT | 0.3
51 | TAAATCACGTGTCGGT | 0.11
52 | TGTTCCACGTGTCAGG | 0
53 | AATGTCACGTGATGGC | 0.18
54 | GTACTCACGTGGTTTG | 0.15
55 | GGAGGCACGTGGAGTC | 0.07
56 | AGCTTCACGTGTGAGT | 0.27
57 | TTAGCCACGTGGGGAG | -0.15
58 | CTGGGCACGTGGGATA | -0.17
59 | TTAAGCACGTGCATGT | -0.18
60 | ATGATCACGTGGGTAA | 0.15
61 | GTCTGCACGTGTTGTC | 0.02
62 | CTTGGCACGTGTGGAG | 0.03
63 | TTGTTCACGTGAGATA | 0.31
64 | CTGGCCACGTGGGGGG | -0.28
65 | TGAGTCACGTGTTCAG | 0.14
66 | TGGAACACGTGATTTA | 0.07
67 | AGAGTCACGTGCCTGG | 0.14
68 | CGTGGCACGTGGTGGA | -0.24
69 | CGCTGCACGTGGTCGG | -0.05

Row | Sequence | relative binding free energy [kcal/mol]
70 | GATATCACGTGGCTGG | 0.11
71 | TGATTCACGTGATAGT | 0.26
72 | GAGCGCACGTGTGTTT | 0.06
73 | GTGTTCACGTGGTTAG | 0.25
74 | GTATTCACGTGTTAGT | 0.33
75 | TAAGTCACGTGGAGTT | 0.07
76 | GAGCGCACGTGTAGGG | -0.09
77 | TTGAGCACGTGCTGTA | -0.12
78 | GGCGCCACGTGGTGTG | -0.13
79 | GGTTTCACGTGTTGCG | 0.21
80 | AGGGTCACGTGTTGGT | 0.24
81 | GGAGTCACGTGAGCTG | 0.31
82 | AGATGCACGTGCGGGG | -0.08
83 | GAGGTCACGTGCGGGT | 0.16
84 | AAGAGCACGTGTGTTA | -0.14
85 | CGTGCCACGTGTGTTA | -0.02
86 | ACGCACACGTGGGTGG | -0.03
87 | GTTGTCACGTGGATGG | 0.18
88 | GGCGACACGTGTGAGT | 0.24
89 | GGTATCACGTGGTATA | 0.05
90 | GTTGGCACGTGCGGGA | -0.12
91 | TATGACACGTGAAGTG | 0.3
92 | GAGAGCACGTGGTTAT | -0.08

Row | Sequence | relative binding free energy [kcal/mol]
93 | GAGTTCACGTGTTGTT | 0.39
94 | AGGCTCACGTGATTGG | 0.41
95 | TGCTACACGTGGAATG | 0.24
96 | GATTACACGTGTCAGT | 0.23
97 | GGGGGCACGTGGTGTG | -0.17
98 | GGATGCACGTGGGACT | -0.08
99 | TCGGACACGTGGTGAG | 0.02
100 | CGGTCCACGTGAGGGG | 0.13
101 | GTGTTCACGTGCCGTT | 0.27
102 | TGTAGCACGTGTATGT | -0.11
103 | TACTTCACGTGGTGGC | 0.18
104 | TGAGTCACGTGGGTGA | 0
105 | TGATTCACGTGTCTTA | 0.37
106 | AGAGGCACGTGGGCGA | -0.31
107 | GTGCTCACGTGTAAGT | 0.29
108 | CGTTGCACGTGGAGCG | 0.07
109 | ATTCTCACGTGCGGGT | 0.16
110 | ATGGGCACGTGCTTCG | -0.02
111 | CAGGTCACGTGCTGTT | 0.04
112 | GTTAGCACGTGTAAGA | -0.02
113 | GTGAGCACGTGCGGTC | -0.05
114 | CGGGACACGTGGAAGT | 0.1
115 | GGGTTCACGTGAGAAT | 0.52
